Laboratory results reported in patent US20180186871A1.

Legend:
murine IL-11 (mouse) = target: T1, murine IL-11 (mouse) (UniProt P47873); assay: ELISA binding signal
T1 sequence (looked up): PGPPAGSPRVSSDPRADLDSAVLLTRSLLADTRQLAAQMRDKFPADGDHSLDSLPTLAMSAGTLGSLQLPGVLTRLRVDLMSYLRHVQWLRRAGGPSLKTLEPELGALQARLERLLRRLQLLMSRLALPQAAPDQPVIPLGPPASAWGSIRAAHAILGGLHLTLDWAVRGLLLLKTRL

human IL-11 (human) = human IL-11 (human) (UniProt P20809); assay: ELISA binding signal

B1: YU112-E08 (scFv)
scFv: VTLKESGGGVVQPGRSLRLSCAASGFTFSSYGMHWVRQAPGKGLEWVAVISYDGSNKYYADSVKGRFTISRDNSKNTLYLQMNSLRAEDTAVYYCAKGGKSYYGFDYWGQGTLVTVSSGSASAPKLEEGEFSEARV[no letters for about 100 residues]TWTFGQGTKVEIK
mIL11 - average signal (murine IL-11 (mouse)): 0.323 | hIL11 - average signal (human IL-11 (human)): 0.373
